Test results reported in the supplement of paper PMC10338343.
± gives the standard deviation. Only a part is listed here, and it is no random draw.

These sequences were tested on MIWI (PIWIL1) piRISC loaded with piRNA #1 (30 nt) (assay: pre-steady-state target cleavage rate (min^-1); MIWI and MILI are mouse PIWI proteins and EfPiwi is from a freshwater sponge; tags in brackets are library labels; higher = faster piRNA-guided slicing of the target). Details: guide: piRNA #1 5'p-UGAGGUAGUAGGUUGUAUAGUAUCCAGAGG; auxiliary factor: 500 nM mouse GTSF1.
Procedure, shortened: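 In this Cleave-'n-Seq assay, uncleaved targets were sequenced and normalised to depth and to weakly complementary targets. They came from a transcribed, DNA-blocked target RNA library […] mixed with 1 nM active affinity-purified piRISC carrying one synthetic guide, with or without 500 nM GTSF1 partner protein, in HEPES–potassium acetate buffer at 33 °C for 0–8 or 0–960 min. After three trials were pooled and k3 was capped at 0.0001 min^-1, the pre-steady-state cleavage rate was obtained from a burst-and-steady-state fit.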
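Also: 1 nM active piRISC with 0.1 nM target library at 33 °C single turnover.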

Sequence | pre-steady-state target cleavage rate
GGAGAGGAUUCUAUACAACCUACUACCACA | 0.665 ± 0.047
GGAGACGAUACUAUAGAACCUUCUACCUCA | 0.156 ± 0.019
GGAGAGGAUACGAUACAACCUACUACCUCA | 1.16 ± 0.065
GCUCUGGAUACUAUACAACCUACCACCUCA | 0.894 ± 0.074
CCUCUGGAUAGUAUACAACCUACUAGCUCA | 0.085 ± 0.021
GGAGACGAUACUAUACAAGCUACAACCUCA | 0.856 ± 0.048
GGUCACGAUACUAUACAACCUACUACCUCA | 1.89 ± 0.12
GGUCUGGAUACUAUACAACCUACUCCCUCA | 0.341 ± 0.043
GGAGACGACACUAUACAACCUACUACCUCA | 1.72 ± 0.1
GGAGAGGAUACAAUACAACCUUCUACCUCA | 0.476 ± 0.027
CCUCUGGAUACUUAACAACCUACUACCUCA | 1.38 ± 0.1
GGAGAGGAUACUAUACAACGUACUACCUCA | 0.168 ± 0.027
GGACUGGAUACUAAACAACCUACUUCCUCA | 0.0147 ± 0.0032
GGAGACCAUUCUUUACAACCUACUACCUCA | 0.387 ± 0.059
GGAGUGGAUACUAUACAACCUAUUACCUCA | 0.965 ± 0.067
GGACUGGAUACUAUACAACCUACUACCCUCA | 0.625 ± 0.09
GGAGACCUAUCUAUACUAGCUACUACCUCA | 0.00864 ± 0.0029
GGAGAGGUUACUAUACAACCUACUACCUCA | 1.49 ± 0.07
GGACUGGAUACUAUACAUCCUACUACCACA | 1.43 ± 0.12
GGACAGGAUACUAUACAACCUUCUACCUCA | 0.646 ± 0.036
GGUCUGGAUACUAUACAACCUACUACCUAA | 0.778 ± 0.079
GGACUGGAUACUAUACAACCUACUUACCUCA | 1.04 ± 0.079
GGAGAGGAUAGAAUACAACCUACUACCUCA | 0.453 ± 0.042
GGAGACCUAACUGAUACAACCUACUACCUCA | 0.262 ± 0.076
